# According to PubChem BioAssay AID1345083 (National Center for Advancing Translational Sciences (NCATS), 2018):
# Among all 94,000 compounds or so, about 6,200 (6.6%) were called active. Inconclusive means that the source gave no clear call. Such entries were picked first, then a sample of the others. The call rests on the fitted dose curve; in most records, active means well fitted inhibition curve with a large enough effect; inconclusive means small, poorly fitted or top-dose-only effect; inactive means flat fitted curve, though single readings scatter. A potency beside an inconclusive call is a rough fit, not a confirmed value.
# Assay: Cytotoxic Profiling in HEK 293 Cell Line of Diverse Libraries Using Quantitative High-Throughput Screening; further: nearly all actives have a fitted effect of over 60% in size
# Details: HEK 293 viability, ATP luminescence (CellTiter-Glo), 48-72 h; activity change, negative = cytotoxicity: at 115 µM (top of the series) unless noted; series mostly up to 115 µM
# Method in brief: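 Pintool-delivered compounds were incubated with HEK 293 cells (250 cells/well) at 37 degree Celsius for 48 or 72 hr. ATP-dependent luminescence (CellTiter-Glo) then reported remaining viable cells.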
# On the % scale 0 is the no-effect control and ±100 the full control effect; potency means the concentration at half of the fitted maximal effect; tags describe the fitted curve by direction and shape.
Structure (SMILES),Potency,"activity change, negative = cytotoxicity",outcome
O=C(Cn1ccn2nc(-c3ccccc3)c(CO)c2c1=O)Nc1cccc(C(F)(F)F)c1,"inconclusive: 70.8 µM [inhibitor, partial curve, poor fit]",–,–
OC[C@H]1C[C@@H](NCc2ccc(F)cc2)[C@H](O)[C@@H]1O,–,inactive: -0.205% [at 230 µM],–
COc1ncccc1-c1n[nH]c2c1CC(=O)N(c1ccccc1)C2,–,inactive: 2.12% [at 172 µM],–
Cc1ccccc1NC(=O)c1cc2n(n1)CC(c1ccc(Cl)cc1)OC2 (stereo not given),"inconclusive: 56.2 µM [inhibitor, partial curve, poor fit]",–,–
O=C(NCCc1ccccc1F)c1nc2sccn2c1-c1cccc(C(F)(F)F)c1,"inconclusive: 70.8 µM [inhibitor, full curve]",–,–
CCOc1ccc(-c2cc3c(=O)n(CCNC(=O)c4cccc(N(C)C)c4)ccn3n2)cc1,"inconclusive: 25.1 µM [inhibitor, partial curve]",–,–
COc1cccc(-c2c(C(=O)NC3CC3)nc3sccn23)c1,–,inactive: -0.806% [at 172 µM],–
Cc1ccc(-c2cc(C(=O)NCc3ccc4c(c3)OCO4)nn3cnnc23)cc1,"inconclusive: 79.4 µM [inhibitor, partial curve]",–,–
Clc1ccccc1C1(c2ccnc(NC3CCC3)n2)CCNCC1,active: 35.5 µM,–,–
O=C(Cc1ccc(Cl)cc1)N1CCC(c2n[nH]c(=O)n2-c2ccccc2)CC1,–,inactive: -1.95%,–
CCN1CCN(c2ccc(C(=O)N3CCCC(c4ccccc4)CC3)cn2)CC1 (stereo not given),"inconclusive: 56.2 µM [inhibitor, partial curve, poor fit]",–,–
O=C(NC1CC1)c1ccccc1OCC1CCCN(C(=O)C2CCCC2)C1 (stereo not given),"inconclusive: 50.1 µM [inhibitor, partial curve, poor fit]",–,–
Cn1ccc(Nc2cc3c(cn2)CN(CCc2ccccc2)CCN3)n1,"inconclusive: 112 µM [inhibitor, partial curve, poor fit]",–,–
N#Cc1cccc(-c2cn3cc(C(=O)NCCCc4ccccc4)nc3s2)c1,"inconclusive: 35.5 µM [inhibitor, full curve, poor fit]",–,–
CCOc1ccccc1CN1CC[C@H](CNC(C)=O)[C@H](N(C)C)C1,–,inactive: -20.1%,–
CNC(=O)[C@@H](CC(C)C)N1CCC[C@H]1C(=O)NC1CCCCC1,–,inactive: -9.76% [at 172 µM],–
CNC(=O)[C@@H](c1ccc(Cl)cc1)N1CCC[C@H]1C(=O)NC(C)(C)C,–,inactive: -2.5% [at 172 µM],–
Cc1nnc2ccc(N3CCC(NC(=O)c4ccccc4F)CC3)nn12,–,inactive: 2.62%,–
O=C(NCc1cccnc1)c1nc(-c2ccc(F)cc2)c2ccccn12,"inconclusive: 35.5 µM [inhibitor, partial curve]",–,–
O=C(c1ccc(F)c(F)c1)N1CCN(c2cc(-c3ccc(F)cc3)[nH]n2)CC1,"inconclusive: 50.1 µM [inhibitor, partial curve, poor fit]",–,–
O=C(NCC1CCNCC1)c1ccc(C2CCNC2)cc1 (stereo not given),–,inactive: -14.4%,–
CC(=O)N1CCC(Cc2ncc(C)n2CC2CC2)C1 (stereo not given),–,inactive: -5.4%,–
CN(Cc1ccccc1)Cc1cccc(C(F)(F)F)c1,–,inactive: -5.45% [at 172 µM],–

Structure (SMILES),Potency,"activity change, negative = cytotoxicity",outcome
O=C(C1CC12CCCC2)N1CCc2onc(-c3cccc(F)c3)c2C1 (stereo not given),"inconclusive: 39.8 µM [inhibitor, partial curve]",–,–
COc1ccc(CNC(=O)Cn2c(N3CCc4ccccc4C3)nc(C)cc2=O)cc1,"inconclusive: 31.6 µM [inhibitor, partial curve, poor fit]",–,–
O=C(CC(c1ccccc1)c1ccccc1F)N1CCSCC1 (stereo not given),"inconclusive: 79.4 µM [inhibitor, single point]",–,–
O=C(C1CCCN1C(=O)c1ccc(Cl)nc1)N1CCC(N2CCOCC2=O)CC1 (stereo not given),–,inactive: -0.367%,–
CC1CCN(CC2CCCN(C(=O)C3(c4ccccc4)CC3)CC2)CC1 (stereo not given),"inconclusive: 100 µM [inhibitor, partial curve, poor fit]",–,–
COc1ccc(-c2noc([C@@H]3CCCN3C(=O)c3cc(C)cc(C)c3)n2)cc1OC,active: 31.6 µM,–,–
COc1ccccc1-c1cccc(CN)c1,active: 100 µM,–,–
CC(C)CCN1C(=O)CC[C@]2(C(=O)N3CCC(C)CC3)CCCC[C@@H]12,"inconclusive: 89.1 µM [inhibitor, single point]",–,–
CN(C)c1ccc2ncc(Nc3ccccc3-c3ccccc3)n2n1,active: 63.1 µM,–,–
COCCN[C@@H]1C[C@@H]2c3[nH]c4ccccc4c3C[C@@H](C(=O)OC)N2[C@H](c2ccccc2)C1,active: 28.2 µM,–,–
COc1ccc(N2CC(c3noc(-c4cc(OC)c(OC)c(OC)c4)n3)CC2=O)cc1OC (stereo not given),"inconclusive: 79.4 µM [inhibitor, partial curve, poor fit]",–,–
Cc1ccc(NC(=O)C[C@H]2NC(=O)c3ccccc3NC2=O)c(Cl)c1,"inconclusive: 89.1 µM [inhibitor, single point]",–,–
O=C(Nc1ccc(Cl)nc1)c1ccc2ccnn2c1,"inconclusive: 126 µM [inhibitor, single point]",–,–
Cc1ccccc1C(=O)N1CCN(C(=O)c2nc3cccnc3n(CC(C)C)c2=O)CC1,–,–,inactive
CCn1ncc(CN2CCC(C3CCN(C)CC3)C2)c1C (stereo not given),–,inactive: -1.95%,–
CCOc1ccc(NC(=O)c2cc3c(s2)CN(C2CCCC2)C3)cc1,"inconclusive: 56.2 µM [inhibitor, partial curve, poor fit]",–,–
COc1ccc(S(=O)(=O)Nc2ccc(C)n(CC(=O)N(C)Cc3ccco3)c2=O)cc1,active: 31.6 µM,–,–
Cc1cccc(NC(=O)C23CCC=C2N(C2CCCC2)C(=O)CC3)c1 (stereo not given),"inconclusive: 89.1 µM [inhibitor, single point]",–,–
Cc1cc(C)cc(-c2ccc(CN3CCCC(NC(=O)c4ccccc4)C3)cc2)c1 (stereo not given),active: 28.2 µM,–,–
COCc1nc(-c2ccc(OC3CCN(C(=O)Nc4cccc(C)c4)C3)cc2)no1 (stereo not given),"inconclusive: 44.7 µM [inhibitor, partial curve, poor fit]",–,–
COc1ccc(Nc2ccnc(N3CCC(NC(=O)Cc4ccc(C(F)(F)F)cc4)CC3)n2)cc1,"inconclusive: 10 µM [inhibitor, full curve, poor fit]",–,–
O=C(c1nc2cccnc2n(CCc2ccccc2)c1=O)N1CCN(C(=O)C2CC2)CC1,–,inactive: 0.63%,–
